Test results from PMC7819943, “Rice protein-binding microarrays: a tool to detect cis-acting elements near promoter regions in rice”.
This is one part of the list.

Target: T1, OsWOX13 (Oryza sativa, UniProt Q5QMM3 1-267)
T1 sequence: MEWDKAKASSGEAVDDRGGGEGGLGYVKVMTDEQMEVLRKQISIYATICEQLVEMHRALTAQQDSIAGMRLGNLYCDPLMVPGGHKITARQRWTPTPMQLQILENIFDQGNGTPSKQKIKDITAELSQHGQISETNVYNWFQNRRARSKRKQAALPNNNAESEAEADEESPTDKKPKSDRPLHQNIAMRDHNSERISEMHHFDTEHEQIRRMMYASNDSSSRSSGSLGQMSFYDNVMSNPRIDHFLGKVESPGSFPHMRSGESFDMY
Assay: protein-binding microarray (RPBM); PBS, 2% BSA, 51.3 ng/ul salmon testes DNA, 50 uM zinc acetate, 200 nM TF, 25 C, 1 h; high values mean tight binding
Details: protein: recombinant; tags: N-terminal polyhistidine and DsRed monomer fusion (pET32a); label: CyDye5-dUTP incorporated in the synthesized complementary strand; 3' TTTTT single-stranded linker to array surface; dsDNA, one strand shown
Method in brief: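 Binding signal here means per-feature fluorescence intensity in arbitrary units. The values were read on an Axon 4000B scanner after a custom Agilent array, double-stranded by primer extension with Cy5-dUTP, was incubated with 200 nM protein at 25 °C for 1 h in PBS with 2% BSA, salmon testes DNA and 50 µM zinc acetate, then washed. The proteins were transcription factors with an N-terminal polyhistidine tag and DsRed, expressed in E. coli BL21-CodonPlus and purified on Ni–NTA.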

Sequence	binding signal
TATTGATTTGATAAATTTAATTTAGTACTATAAATATTATCGGAGTCACCTAGTGCAG	16900 fluorescence intensity (a.u.)
GTGATAATTTAGTTACTAAACATGTTGTGAAACTTTATCTCGGAGTCACCTAGTGCAG	3720 fluorescence intensity (a.u.)
TCATTTTGAATAAATTAATTTTGAAGTTGATCTGTTGTATCGGAGTCACCTAGTGCAG	15500 fluorescence intensity (a.u.)
TATTTAATTTGTTGAACTAGCCATCTGACCCGTGCGTATCCGGAGTCACCTAGTGCAG	30400 fluorescence intensity (a.u.)
ATGTTAAATTATACTACATCCGTTTCAGGTTATAAGATGTCGGAGTCACCTAGTGCAG	6910 fluorescence intensity (a.u.)
CTATTAATTGTAGGTTATAAATGCCCATCTTAAACCCTGTCGGAGTCACCTAGTGCAG	29600 fluorescence intensity (a.u.)
CTATCAACAATCAATTTGATGTATGTGCTCTTCTTTGTGCCGGAGTCACCTAGTGCAG	11200 fluorescence intensity (a.u.)
CAGTTCAAATAAATTTAGATTGGGTTATTTAAAGGCTAAGCGGAGTCACCTAGTGCAG	11100 fluorescence intensity (a.u.)
GACTAATGAGGTACTTGTCAATTGTCATCAGATGTGCCAGCGGAGTCACCTAGTGCAG	5410 fluorescence intensity (a.u.)
TCGGTATTGTGATTGAGGGGTAAGAGTAAGTTTCGGCCACCGGAGTCACCTAGTGCAG	18700 fluorescence intensity (a.u.)
ACGTAATTAAGAGTGAATTAATTCTACATGTATCTATCAACGGAGTCACCTAGTGCAG	24500 fluorescence intensity (a.u.)
ATTAATTTCACCATGAATAATGTGGATAATCATATCTTTCCGGAGTCACCTAGTGCAG	7960 fluorescence intensity (a.u.)
AATTTATCTCTAATTTTATATAACTATTTAGACGATGAAGCGGAGTCACCTAGTGCAG	4720 fluorescence intensity (a.u.)
TCTTGACACCGGCCGGATTGATCTATCATCCATCCATCGACGGAGTCACCTAGTGCAG	12300 fluorescence intensity (a.u.)
TTCTGTAATTGATAGGTTAAGGGCCCCTTTGAATCACAGGCGGAGTCACCTAGTGCAG	50400 fluorescence intensity (a.u.)
ACTATTCTATTATGATGATTAGGCTGTTATTGGTTGAAGTCGGAGTCACCTAGTGCAG	7170 fluorescence intensity (a.u.)
TAGTTAATTGTAGATATACATCGTATCATTAATACCTAATCGGAGTCACCTAGTGCAG	20500 fluorescence intensity (a.u.)
CAAATGATTGGATACCATCCTCAGAGACGGTATGGCAGTACGGAGTCACCTAGTGCAG	50000 fluorescence intensity (a.u.)
AACTAACTAGGAGTATTAATTAATTCCTTCCACTAATCACCGGAGTCACCTAGTGCAG	11800 fluorescence intensity (a.u.)
AACGGAATTAAACTAACCGTTGACTAGCGGCAATGGTATGCGGAGTCACCTAGTGCAG	3820 fluorescence intensity (a.u.)
CCATAATTGAGGGCTCCAAGTAGACTTCTTACTTTCGAAACGGAGTCACCTAGTGCAG	32400 fluorescence intensity (a.u.)

Sequence	binding signal
CGTCTTGATTTGGTGGAGCATGATAGCGTATTACTAGTTTCGGAGTCACCTAGTGCAG	14800 fluorescence intensity (a.u.)
TCAAAATTGATAAGTGTTAATTAGACATAAAATATATTCACGGAGTCACCTAGTGCAG	24800 fluorescence intensity (a.u.)
TTCTCAATTGAACCTCTTTTCTGTTGTCGATTAATATAAACGGAGTCACCTAGTGCAG	3280 fluorescence intensity (a.u.)
CTCCGAGATTGATCTTGCCCGCTCTCATGTGCGAAAGCTTCGGAGTCACCTAGTGCAG	21400 fluorescence intensity (a.u.)
GTTAATGGATGTAGATATATATATCTATCTAGATTTATTACGGAGTCACCTAGTGCAG	7040 fluorescence intensity (a.u.)
CGTAACTTCATTTACAAATCTTCCGATTAACCCATAAGCCCGGAGTCACCTAGTGCAG	5080 fluorescence intensity (a.u.)
CTCGCTACTGATAGATTTGGCCAATGGAGACGTTCCTGCTCGGAGTCACCTAGTGCAG	10400 fluorescence intensity (a.u.)
TCTTAATTTAGATGAAGTTAAAACTGTTTAGCTGAGCTCTCGGAGTCACCTAGTGCAG	29000 fluorescence intensity (a.u.)
ATTATTGACAATTGTCTAAGTATGCTTCTAAAATTATTTCCGGAGTCACCTAGTGCAG	11000 fluorescence intensity (a.u.)
TTGATTTGGTTGATTGCCTCCTTCGTTCGTCCACGCTCAACGGAGTCACCTAGTGCAG	57100 fluorescence intensity (a.u.)
ATTTCAAATTATTTAATTAGAGTCAGATGGAGAAATGACCCGGAGTCACCTAGTGCAG	17100 fluorescence intensity (a.u.)
TTCGATTTAACTGTTCTATTACTGAGGTACTCTTCGATTTCGGAGTCACCTAGTGCAG	6940 fluorescence intensity (a.u.)
AATGGAAGCCTATTAATTGGTAATACGTAATCTAGAATTGCGGAGTCACCTAGTGCAG	8540 fluorescence intensity (a.u.)
ATGCCAAATTGCCAATGGTGATGTGATCATGTGAAAGACACGGAGTCACCTAGTGCAG	5420 fluorescence intensity (a.u.)
GTTACACTGCAATTATATCGTATTTACATTTATAACTGGGCGGAGTCACCTAGTGCAG	3200 fluorescence intensity (a.u.)
AGTGATGGATAGAGAAAGAAGATGGAACTGACATGCGGGTCGGAGTCACCTAGTGCAG	12800 fluorescence intensity (a.u.)
AATTAAATTAACTTCTGTGCGTGTGTCTGTGGGGCCCTTGCGGAGTCACCTAGTGCAG	18100 fluorescence intensity (a.u.)
ATTTCAAAATTTGTTATAAATTTTGCAGTTATTTCATGCACGGAGTCACCTAGTGCAG	7840 fluorescence intensity (a.u.)
ATGCTCAAATCAGTGTCTTAATTATAGGCTGGCTGATTGGCGGAGTCACCTAGTGCAG	15000 fluorescence intensity (a.u.)
CTTCTAGTGAGTTGATTGAAGGGATCTAATCCTGGGTCCGCGGAGTCACCTAGTGCAG	23700 fluorescence intensity (a.u.)
TCCAAATCTAGATTGATGGATGGTCTACTTCGCCAAGTATCGGAGTCACCTAGTGCAG	49200 fluorescence intensity (a.u.)

Sequence	binding signal
CAAATGATTAAACATTGGACATAGAAACCCACAACTATACCGGAGTCACCTAGTGCAG	20500 fluorescence intensity (a.u.)
GAGAGTATCTAATTAATCATATGCTAATGAGTTTTCTTGTCGGAGTCACCTAGTGCAG	3630 fluorescence intensity (a.u.)
TGAGTATGATGAGATTAATTTCTTGCCTGTTTCTGCTGGACGGAGTCACCTAGTGCAG	5980 fluorescence intensity (a.u.)
CTGAAACTAGAATTGATGCCAAATGAGTTGAGGTTGGAATCGGAGTCACCTAGTGCAG	4490 fluorescence intensity (a.u.)
AACAAACAATCAAATATTTAGGCCATGTTTAGTTCACGCCCGGAGTCACCTAGTGCAG	5130 fluorescence intensity (a.u.)
CTTTAATAAGTTAATAGATAGATGGAAACGAATCAAATCACGGAGTCACCTAGTGCAG	16200 fluorescence intensity (a.u.)
AGGTAGATTGAGTTTAAGTTATTGAATCTGGTTAGGGTGACGGAGTCACCTAGTGCAG	7120 fluorescence intensity (a.u.)
TTATCCTAATTAACCTTGCTGGAGCTTTATCGTATACTAGCGGAGTCACCTAGTGCAG	5300 fluorescence intensity (a.u.)
GTTCAGATGATTGAGATCTACAATGAGCAAATCCGTGATCCGGAGTCACCTAGTGCAG	38600 fluorescence intensity (a.u.)
ACATAACTACTGATTGTTAGAATCTGGTCGAAATGGCATACGGAGTCACCTAGTGCAG	9260 fluorescence intensity (a.u.)
AGCTAATACTTAATTAATCACGCGCTAATAGACCGCTCCGCGGAGTCACCTAGTGCAG	23100 fluorescence intensity (a.u.)
AAATAATTAGTCGCACCAAACTTCCAATTTTAGTGTGGAACGGAGTCACCTAGTGCAG	23000 fluorescence intensity (a.u.)
CGTGCCAATCAATTAATCGATCGATCAGTTTTGTGCGTACCGGAGTCACCTAGTGCAG	51800 fluorescence intensity (a.u.)
GGCTGGGGTGGGCTCTACTTGACAGACTGATACTCCTACTCGGAGTCACCTAGTGCAG	7510 fluorescence intensity (a.u.)
CCTAATTAATCCATAGCACATGTTTACTGTAGCGTCACATCGGAGTCACCTAGTGCAG	12400 fluorescence intensity (a.u.)
AAATTAACCGGAGTGAAGATTGTTTGGCAGCTGAAACTGCCGGAGTCACCTAGTGCAG	3900 fluorescence intensity (a.u.)
TTGACTGAGACAGGTACATAGTTTAAAGTTAGACCACATGCGGAGTCACCTAGTGCAG	9000 fluorescence intensity (a.u.)
AGATCCCGTGATTAGAAATGGAACTCGCCTCTCGATCTCACGGAGTCACCTAGTGCAG	13300 fluorescence intensity (a.u.)
ATTGATTGAGAAAATAATGTTGGTGAATAAATTGTTATATCGGAGTCACCTAGTGCAG	40700 fluorescence intensity (a.u.)
CTTGACTGTCTTCTCTCTCCCTGTTCATTCTAGATTCTGTCGGAGTCACCTAGTGCAG	25800 fluorescence intensity (a.u.)
CCCGATTGAGATAGGTCATCTGTGACGGGCTATAGTTTGACGGAGTCACCTAGTGCAG	22800 fluorescence intensity (a.u.)

Sequence	binding signal
AGTAAATAAATAGATTAAAGTGCAGGTGGGAGAAACAACGCGGAGTCACCTAGTGCAG	19500 fluorescence intensity (a.u.)
CACTACAAATTAATGAGACACTAAGTTAAGTTATATTGACCGGAGTCACCTAGTGCAG	4590 fluorescence intensity (a.u.)
AGCCAATCAACGGTGGGCCACATTGCTGAACATATAAATTCGGAGTCACCTAGTGCAG	5510 fluorescence intensity (a.u.)
AATAAATTCTGATAGATTTACCCCAGTCGGGCCGTAACGGCGGAGTCACCTAGTGCAG	17800 fluorescence intensity (a.u.)
GTTTTAATTCATATTGATGGAGTACTTCATTTAACCGAAACGGAGTCACCTAGTGCAG	5980 fluorescence intensity (a.u.)
TAAAATTAGATGACGCACATTGACTAATATAACAATTTGGCGGAGTCACCTAGTGCAG	21600 fluorescence intensity (a.u.)
TAAATAATTTCCTTGGTGTGGTACTCTTTGAAAACGTTATCGGAGTCACCTAGTGCAG	3690 fluorescence intensity (a.u.)
CCACCAACCAATCAAACTTTCTTGTTAATAATGAATAATTCGGAGTCACCTAGTGCAG	3860 fluorescence intensity (a.u.)
AATTAATTTTCAAACATCCGATGTGATAGGGACTTAAAAGCGGAGTCACCTAGTGCAG	8480 fluorescence intensity (a.u.)
GTTCAATATACTAATTAGTGTGACATGGCTCTCATCATATCGGAGTCACCTAGTGCAG	9110 fluorescence intensity (a.u.)
GTGTAGTTAATTACTACACTAGGCTTTTGCTCGTCTTCCGCGGAGTCACCTAGTGCAG	8780 fluorescence intensity (a.u.)
TTATCAATTATCAAGTAACATAATTACATAAGATAAGTGACGGAGTCACCTAGTGCAG	17000 fluorescence intensity (a.u.)
GTGTGCCTAATCAATCAGGAGCTCATGTCTATAGCCCACCCGGAGTCACCTAGTGCAG	25700 fluorescence intensity (a.u.)
GTTAAATAAGCAATTATCCCATTTAACATATCGGAATTTCCGGAGTCACCTAGTGCAG	11200 fluorescence intensity (a.u.)
TATATTGATCTAGACATCTAGCCACAATCAGGCAAGGCCACGGAGTCACCTAGTGCAG	3650 fluorescence intensity (a.u.)
CCCTTGATTTTCTTTCCACACCACCGGGACGCGCGTGCCACGGAGTCACCTAGTGCAG	12200 fluorescence intensity (a.u.)
CAGTAAATTAACCGATGCTAAGATTTGTAACCTACTCTATCGGAGTCACCTAGTGCAG	13700 fluorescence intensity (a.u.)
ACAGGTTGATATCTATCACGAATTCAGAATGAGCACGCCGCGGAGTCACCTAGTGCAG	5100 fluorescence intensity (a.u.)
GAGTAAATTTCAGAAAACTGAAATTATAGTGATAAAACTACGGAGTCACCTAGTGCAG	4330 fluorescence intensity (a.u.)
GCGTCATGATTTGACAATGTGGTGCTATAGTAAACATTTGCGGAGTCACCTAGTGCAG	20400 fluorescence intensity (a.u.)
CGTAATAGACGACCCCATGACCACCCGAGGCAGCTCTGGCCGGAGTCACCTAGTGCAG	18500 fluorescence intensity (a.u.)
